Experimental data reported in the supplement of paper PMC11417369.
Some of the results follow.

Test system: PfSIP2 AP2 domain 1 (GST-tagged)
Test: gcPBM binding intensity (ln(normalized median fluorescence intensity)); higher = stronger DNA binding
In short: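 Probes on an Agilent 4 × 180k array were primer-extended, double-stranded and 36 bp long, taken from intergenic genomic regions, with negative controls added. GST-tagged P. falciparum DNA-binding domains from E. coli, about 25 μg on average, were applied to the array for 1 h in 1× PBS containing 1% milk, 0.2 mg/ml BSA, 0.5% salmon testes DNA and 0.03% Triton X-100. Binding intensity, obtained after Alexa488 anti-GST antibody detection and a 488 nm scan, is the highest Masliner-normalised natural-log median intensity across replicate spots of either probe orientation.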

Row | Sequence | gcPBM binding intensity (ln)
1 | TCATCATATTATATATGTACATATATAATAATTTAT [XGTACX_site1625] | 7.31
2 | ATTGTATCTGTATATGCACACAATATCTGTACTTCT [CACACA_site5445] | 7.04
3 | AAATAAAGCACACCGACACACACATATATATATATA [CACACA_site8256] | 9.21
4 | TATATATATGTATACACACATACAAATATGTAAAAA [CACACA_site3720] | 7.17
5 | CGAAATCATATGTACACACACATATATATATATATA [CACACA_site2151] | 9.32
6 | TTTCAATACTGAAACTGTACTTGTTTTACTTCTATT [XGTACX_site5924] | 6.71
7 | TTATAATTTTTTTTTGCATGTGGGTTTTTTTTTGTT [TGCATGCA_site968] | 6.83
8 | ATAAAGAAACATATATGTACTTATATATATATATAT [XGTACX_site5625] | 9.14
9 | TATTATTTATTATATGCACACATCGAACTATTATTT [CACACA_site2544] | 8
10 | TATTCGAAAGAATAGGCATGCAAACATATCTTATTA [TGCATGCA_site147] | 6.57
11 | TTCTATATTATATATGCATGTGTTATTCTTATTTTC [TGCATGCA_site92] | 7.15
12 | AAACATATAAATCACGGTACACATTATTGAAAGTGT [XGTACX_site2966] | 7.06
13 | ATATAATATTAGTGCACACACAAAAATGTACTAAAC [CACACA_site632] | 10.9
14 | ATATATATTATATGCACACTTATATTTCATTAGATT [CACACA_site2599] | 8.8
15 | TTTTATTAATATTGCATGCACACTATATAATAATTG [CACACA_site1049] | 8.63
16 | CGGAAAAATTAAAGCACACAAAAAAAAATAAAAAAA [CACACA_site1133] | 6.94
17 | AATATTTCTTTAATTTGTACATATAAGGGAAAATAA [XGTACX_site6221] | 7.07
18 | TTTTTATTATTTTAAAGTACTCTTTAGTAATTCCCT [XGTACX_site5863] | 6.78
19 | CACAGATAAATTAACACACACACACCGATATATATA [CACACA_site6049] | 7.29
20 | AAAAAACATACATACACACACATAAATATTTATATT [CACACA_site7300] | 7.01
21 | ATATATATTTTAATAACACACATATATTATATTATA [CACACA_site4387] | 7.06
22 | CTTAGGTGTTCATAGAGTACAAATAAAAAAATAAGA [XGTACX_site2294] | 7.22

Row | Sequence | gcPBM binding intensity (ln)
23 | TCATTCTAAATATAAACACACATAAATAAATACATT [CACACA_site5788] | 6.86
24 | GGTGGTGGTGGGTGGGTGCTTCTATTATTATATTAT [GTGCAC_site9391] | 9.59
25 | GATGTTTCTATTTTAGTGCATTTTAAATAAATAAAT | 9.4
26 | ACGTTACATACATATACACACACATATATATATATA [CACACA_site8203] | 9.05
27 | TATATATATTATTATGCATGTAATAAAACAAATAAT [TGCATGCA_site625] | 7.34
28 | ATTTCTTCTTTTTTTGTGAAACTGGAATATATATAT [XGTACX_negctrl_site527] | 8.21
29 | TATTAAAAAATTATATGTACACATTTGTTATATACA [XGTACX_site2232] | 7.28
30 | ATAAAAAAATAAATAACACACAAAATTACACGAAAA [CACACA_site3620] | 7.06
31 | AATTAAAGGAATTACAACTTTGCAAGCGCAACATAA [CACACA_negctrl_site1411] | 6.81
32 | TTCTTTATATATGTTCGTACATATTATTATAATACA [XGTACX_site1549] | 7.25
33 | TATGTCCATATTTCCACACACATATTATTTTTATAT [CACACA_site3798] | 7.26
34 | AAATATATTTTTAATAGTACAATATGAAAATTTCAT [XGTACX_site2562] | 6.98
35 | AAAAAAAAGGAAATAACACACATGTATATATTTATA [CACACA_site1606] | 6.8
36 | CACCATGTTAACAATACATGCATCACTATATAAATG [TGCATGCA_site36] | 7.04
37 | GTACACATATATATATATATATATATATATATATAT [CACACA_negctrl_site800] | 9.8
38 | TTTTTTTTTTTTTTTTGTACTCATACATACTATTAT [XGTACX_site989] | 7.23
39 | TAATTTTCATGTTCATGTACTTAAATATAAGGTAAA [XGTACX_site3284] | 7.01
40 | TGCCTTATTAAAAGAATTACACATATTTAATCGAAA [GTGCAC_negctrl_site153] | 6.98
41 | ATTCATAACAAAAAAAGTACTCAAAATAATAATAAA [XGTACX_site6079] | 7.19
42 | ATTCAATAAACGTATTGTACAAAAGAACGATATATT [XGTACX_site2533] | 7.05
43 | TATTGGATCACACAAAAATGTATAAATAAATAGAAA [TGCATGCA_negctrl_site490] | 6.75
44 | ATCATAACTTGATACGCACACGTTATATAAATAAAA [CACACA_site4955] | 7.12

Row | Sequence | gcPBM binding intensity (ln)
45 | TGAGAATAAAAAAAAGGGATTATTAGATTTCTCCTT [TGCATGCA_negctrl_site326] | 6.26
46 | AAGACAAATTGTGACACACACAAAAAAAAAAAAAAA [CACACA_site3727] | 6.95
47 | AAAAAAATAAGGTGCACACAAAAAAAAAAAAAAAAA [CACACA_site812] | 12.4
48 | GATTCATTTCGTAATACACACAACAAATATTTCAAA [CACACA_site1772] | 7.31
49 | AATGTAAATAAGTGTACACATATATAATACATACAT [CACACA_site4938] | 7.47
50 | TACCTTATATTATATACACACATATAATATAATATA [CACACA_site1328] | 7.19
51 | GTCTCCTTTATTTTTGGTACAGATAAGATAAAAGGA [XGTACX_site1591] | 7.32
52 | GTGTTCATATATAGCCGTACATATGTCTTATGAACG [XGTACX_site5647] | 7.34
53 | ATTATCAAAAAAAAAAAAAAAAAAAAAAAAAAAAAA [CACACA_negctrl_site1118] | 7.07
54 | TATAACATTATTTTGTGTACACATTCGGTTATATTA [XGTACX_site6310] | 7.43
55 | AATCAAAATATATCTACACACATTTAAGTAACCCAT [CACACA_site5846] | 6.94
56 | ATATAGATCTATAATACACACTTATGAAATGTCTAA [CACACA_site6946] | 6.72
57 | TTGTTTCCGATGAAAGAAAGGAAATTATAATATATC [GTGCAC_negctrl_site516] | 6.91
58 | AGAAAAAACAAAAGAGAAATGAAAAAAAAAAAAAAA [XGTACX_negctrl_site482] | 6.91
59 | TAAAATAATATTTATGTGCACATATAATTATTAATT | 8.71
60 | TTTGTGCTTATCCTAACACACACAACATATAAGAAA [CACACA_site9091] | 7.22
61 | ATATATATTTTTATAACACACAATGATGTACATTAC [CACACA_site1076] | 7.2
62 | TGTGTAGCTAGGGGGTTGCTAATTTTTGTTTTGACC [CACACA_negctrl_site634] | 7.38
63 | TTATATATACCATAATGTACTCTATTATATAAAAAA [XGTACX_site7464] | 7.18
64 | GATTCCTTTAACCCTGCACACATACATACATTTATA [CACACA_site9308] | 7.83
65 | TATATTTCTTATTACATACACACATATACATATATG [CACACA_site3202] | 7.13
66 | TAATAATATAATAATACACACTCATTATATATATAA [CACACA_site6045] | 6.89

Row | Sequence | gcPBM binding intensity (ln)
67 | ATAGATGCATATTATACACACATATGTAAATACATT [CACACA_site4691] | 7.06
68 | CCACTATATAAAATCACACATTTATATTATACATAT [CACACA_site4570] | 7.09
69 | TTTATTTTAATTTATTGTACATTGTTATCAAGTGCA [XGTACX_site1110] | 7.15
70 | TATTGGTAATGTAAATGTACATATAGATATTTACAT [XGTACX_site1922] | 6.76
71 | ATAATAGTTAAATGTACACACTAACTACATGGAATA [CACACA_site5753] | 7.1
72 | AAAAAAAGAAATTAGGTGCATAGCATTAACCGATAA [GTGCAC_site9582] | 10.1
73 | TTGAAGTTAATAAAAACTTTATACATGAAATTATTT [CACACA_negctrl_site684] | 6.66
74 | ACAAAAAAAAAAAAAATACACACACATAAAAAAAAA [TGCATGCA_negctrl_site333] | 6.96
75 | ACAAAATATTTTTCTTCACACATCCATTCAACATTT [CACACA_site5886] | 7.24
76 | TATATATATATATATATTAATAATTAATATAAAAGA [XGTACX_negctrl_site32] | 9.16
77 | AATCAAAACATTAAAAAGAAAAAATATATATATATA [CACACA_negctrl_site366] | 9.72
78 | CCATTCAAATTTCGCACACACATACAAAAAAAAAAA [CACACA_site3093] | 7.63
79 | TATAAATGATTAATTTGTACATATTTTACTTAATTG [XGTACX_site5271] | 6.73
80 | TAAATAAATAAATATATATATATATATATATATATA [XGTACX_negctrl_site70] | 9.63
81 | TTGATGATATCATTTTGTACTTATACGTATTTAAAA [XGTACX_site148] | 6.97
82 | CACATAAAAAAATAAACACACATATGTATATAAATA [CACACA_site7483] | 6.95
83 | CTTTAAATGATGTAAACACACACATATACATTATTA [CACACA_site9035] | 7.15
84 | AATGGAAAAATAGGCACACACACATAAATACAGATA [CACACA_site4844] | 7.1
85 | TAAAAAAAAATAAAAAGTACATATATATATATATAT [XGTACX_site1155] | 9.34
86 | AATATGAAACAAGACGCACACATAAATAAATAAATA [CACACA_site326] | 7.15
87 | AGTGCTACTCATGATTGAATAGAGGAAAAGGCGGTG [GTGCAC_negctrl_site49] | 7.24
88 | TTGAAAAATCAGCACACACACAAATACATACATATT [CACACA_site7505] | 7.03
